The RNAGym collection of RNA variant scans (doi:10.1073/pnas.2313332121)
This sample is rich in variants without activity.

B1: TPR 5TU (parent)
chain: GGAUCUUCUCGAUCUAACAAAAAAGACAAAUCUGCCACAAAGCUUGAGAGCAUCUUCGGAUGCAGAGGCGGCAGCCUUCGGUGGCGCGAUAGCGCCAACGUUCUCAACUAUGACACGCAAAACGCGUGCUCCGUUGAAUGGAGUUUAUCAUG

Variants of: B1
Test: polymerase ribozyme fitness, log enrichment relative to wild type (log ratio); higher = more active; in vitro selection for triplet polymerase activity
In short: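 To select mutant libraries of each subunit of a heterodimeric triplet polymerase ribozyme, built by PCR and transcribed, each was annealed with a biotinylated primer, partner subunit and triplets, then incubated frozen at −7 °C. Extended constructs were gel-excised, captured on streptavidin beads and amplified by RT-PCR, in one round carried out in triplicate. Illumina sequencing of input and output libraries kept genotypes with ≥10 input reads and ≥1 read per output. Fitness is the base-2 logarithm of genotype enrichment relative to wild-type enrichment, from inverse-variance-weighted replicate averages.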

Variant | polymerase ribozyme fitness (log ratio)
A89C A107C C114U | ≤ -4.2
A89C A150C | -3.81
A89C C93A U134A G141C | ≤ -4.2
A89C C103A U130C C132A | ≤ -4.2
A89C G92U | -1.92
A89C G117U | -0.705
A89C U90A A107C U144G | ≤ -4.2
A89G A110U U151A | -3.58
A89G C93A | -3.94
A89G C95G A120U G133U | ≤ -4.2
A89G C96U U135G | ≤ -4.2
A89G C99U A115G A137C | ≤ -4.2
A89G G92C A97C C114U | -3.82
A89G U134C | -0.372
A89G U139G | -0.875
A89U A97U U101A A107C A121C G140U U148G | ≤ -4.2
A89U A107U G133A A142G | ≤ -4.2
A89U A122U | -0.615
A89U A150C | -3.66
A89U C93G C99U G143A | ≤ -4.2
A89U C95G A107G U135C | ≤ -4.2
A89U C95U A107U G133C | ≤ -4.2
A89U C96U C118U A122G U139G | -0.0743
A89U C99G A142U | -2.38

Variant | polymerase ribozyme fitness (log ratio)
A89U C99U G128U G141U | ≤ -4.2
A89U G94U | -1.2
U90A A107G | ≤ -4.2
U90A C99G | ≤ -4.2
U90A C99U U111C | -4.13
U90A C103G A110G | ≤ -4.2
U90A C103G A121G | ≤ -4.2
U90A G92C C125A | ≤ -4.2
U90A G143A | ≤ -4.2
U90A U130A | ≤ -4.2
U90C A91U C114U C118U U144G | -4.15
U90C A107U C118G G133C U135G | ≤ -4.2
U90C A138G G143U | ≤ -4.2
U90C C93G | ≤ -4.2
U90C C96U | -3.69
U90C G94U | -3.46
U90C G126U | -3.66
U90C U102C A107U | ≤ -4.2
U90C U109G C125G U144C | ≤ -4.2
U90G A91G A142G | ≤ -4.2
U90G A122U C125A A137U | ≤ -4.2
U90G C93G G140A U148C | ≤ -4.2
U90G C96U A97G A147C | ≤ -4.2
U90G C96U G100U C132U G141A | ≤ -4.2

Variant | polymerase ribozyme fitness (log ratio)
U90G G94U | ≤ -4.2
U90G G128A U144G | ≤ -4.2
U90G U104A U134A | ≤ -4.2
A91C A98G A122U U144C A147U A150C | ≤ -4.2
A91C A113G | -4.15
A91C A115G U146A | ≤ -4.2
A91C A119U | ≤ -4.2
A91C A120G | ≤ -4.2
A91C A142C U146G | ≤ -4.2
A91C C93U | ≤ -4.2
A91C C93U U104G | ≤ -4.2
A91C C95G | ≤ -4.2
A91C C95G C96G U148G | ≤ -4.2
A91C C99A | ≤ -4.2
A91C C99A U127G G133C | ≤ -4.2
A91C C103A | ≤ -4.2
A91C C103G C108U | ≤ -4.2
A91C C105A | ≤ -4.2
A91C C105G | ≤ -4.2
A91C C114U U139C | ≤ -4.2
A91C G92C C99U C116G C123G | ≤ -4.2
A91C G94U A106U A147C | ≤ -4.2
A91C G100C A120U A138G | ≤ -4.2
A91C G100C C108U G143C | ≤ -4.2

Variant | polymerase ribozyme fitness (log ratio)
A91C U102C U130G G133U U135C | ≤ -4.2
A91C U104A C114U C132U U139A | ≤ -4.2
A91C U134G | ≤ -4.2
A91C U144C | -4.19
A91G A142C | -3.5
A91G C95G A119G | ≤ -4.2
A91G C95U C125U | -4.09
A91G C99A U135G A138U | ≤ -4.2
A91G C108U C116G G152A | -3.48
A91G C114U U145C | ≤ -4.2
A91G C118G G143C | ≤ -4.2
A91G C125G G141A | ≤ -4.2
A91G C149U | ≤ -4.2
A91G G133A G141U G143U | ≤ -4.2
A91G G140A | -4.12
A91U A106C C125A | ≤ -4.2
A91U A106G | -4.01
A91U A115U | ≤ -4.2
A91U A120G A142G U145G | ≤ -4.2
A91U A120U | ≤ -4.2
A91U A138G | ≤ -4.2
A91U A147U | -3.99
A91U A150G | ≤ -4.2
A91U C93A A122U G143C | ≤ -4.2

Variant | polymerase ribozyme fitness (log ratio)
A91U C96A U144C U151A | ≤ -4.2
A91U C96G A122U G124U | ≤ -4.2
A91U C96U | ≤ -4.2
A91U C96U C103A U109C | ≤ -4.2
A91U C103G | ≤ -4.2
A91U C103G A110U | ≤ -4.2
A91U C105U | ≤ -4.2
A91U C105U G126U | ≤ -4.2
A91U C123A G124C U144G A147G | ≤ -4.2
A91U C125U G126U U134A | ≤ -4.2
A91U C131A | ≤ -4.2
A91U G124C | ≤ -4.2
A91U G126U | ≤ -4.2
A91U G128C A138G | ≤ -4.2
A91U G141A U148C | ≤ -4.2
A91U G143U U144C C149U | ≤ -4.2
A91U U102G G140A | ≤ -4.2
A91U U104A G141A U148A | ≤ -4.2
A91U U104G | ≤ -4.2
A91U U111C | ≤ -4.2
A91U U135C | ≤ -4.2
A91U U139A | ≤ -4.2
G92A A97C C125U U145G A147C | ≤ -4.2
G92A A138C U148C | ≤ -4.2

Variant | polymerase ribozyme fitness (log ratio)
G92A A150C G152U | ≤ -4.2
G92A C93A A98G U146G | ≤ -4.2
G92A C95A A98G G136C U139C | ≤ -4.2
G92A C96A U102C A150G | ≤ -4.2
G92A C96G C108U A120C C125A U151G | ≤ -4.2
G92A C96U A106C G126A | ≤ -4.2
G92A C103A G126A | -3.74
G92A C105A U127G C149U | ≤ -4.2
G92A C105G | ≤ -4.2
G92A C105U G141C | -3.39
G92A C114U C129G U151G | ≤ -4.2
G92A C116G | -2.6
G92A C125A U134G | -3.58
G92A G94A A98U C108U C116G U148C | ≤ -4.2
G92A G124A | -2.65
G92A G128A A150G | ≤ -4.2
G92A G133U | ≤ -4.2
G92A G152U | -3.58
G92A U102G U104C C118A | ≤ -4.2
G92A U135A | ≤ -4.2
G92A U135G G141U U148C | ≤ -4.2
G92C A98U G143A | -1.77
G92C A122C A150G | -2.28
G92C A138G G140A | ≤ -4.2

Variant | polymerase ribozyme fitness (log ratio)
G92C C103G | ≤ -4.2
G92C C103G C116A G152C | ≤ -4.2
G92C C123U U134C U139A | ≤ -4.2
G92C G100A U130C A138U G141A | ≤ -4.2
G92C U102A C108G G124C | ≤ -4.2
G92C U135G | -3.12
G92C U148G | -3.89
G92U A97G C108G U135C A138G | ≤ -4.2
G92U A115C | -2.23
G92U A138G | -3.48
G92U A147C | -0.377
G92U A147C U148A | ≤ -4.2
G92U C95U C149G | ≤ -4.2
G92U C103U G136U | -3.43
G92U C116A A121G G126A C149G | ≤ -4.2
G92U U101G C103G G124A C129A | ≤ -4.2
G92U U104G A107U | ≤ -4.2
C93A A97G C99U U109G | ≤ -4.2
C93A A98U C103G C105U G126C G136C | ≤ -4.2
C93A A106G U134C | ≤ -4.2
C93A A107G | ≤ -4.2
C93A A115C | -3.22
C93A A137U | ≤ -4.2
